Test results: article PMC6919601, “Identification of Plasmodium dipeptidyl aminopeptidase allosteric inhibitors by high throughput screening” (PLoS ONE, 2019)
In all, about 110,000 compounds went through this assay and about 230 (0.21%) showed an effect of 50% or more. The list shows a part of the results.

molecular target: DPAP1 (Plasmodium falciparum, UniProt Q8IIJ9); test: primary screen, percent inhibition; read by cleavage of a fluorogenic dipeptide substrate; higher = more effect of the substance; parameters: species or system P. falciparum D10 trophozoite lysates; single well
Sequence (Q8IIJ9 whole entry, looked up): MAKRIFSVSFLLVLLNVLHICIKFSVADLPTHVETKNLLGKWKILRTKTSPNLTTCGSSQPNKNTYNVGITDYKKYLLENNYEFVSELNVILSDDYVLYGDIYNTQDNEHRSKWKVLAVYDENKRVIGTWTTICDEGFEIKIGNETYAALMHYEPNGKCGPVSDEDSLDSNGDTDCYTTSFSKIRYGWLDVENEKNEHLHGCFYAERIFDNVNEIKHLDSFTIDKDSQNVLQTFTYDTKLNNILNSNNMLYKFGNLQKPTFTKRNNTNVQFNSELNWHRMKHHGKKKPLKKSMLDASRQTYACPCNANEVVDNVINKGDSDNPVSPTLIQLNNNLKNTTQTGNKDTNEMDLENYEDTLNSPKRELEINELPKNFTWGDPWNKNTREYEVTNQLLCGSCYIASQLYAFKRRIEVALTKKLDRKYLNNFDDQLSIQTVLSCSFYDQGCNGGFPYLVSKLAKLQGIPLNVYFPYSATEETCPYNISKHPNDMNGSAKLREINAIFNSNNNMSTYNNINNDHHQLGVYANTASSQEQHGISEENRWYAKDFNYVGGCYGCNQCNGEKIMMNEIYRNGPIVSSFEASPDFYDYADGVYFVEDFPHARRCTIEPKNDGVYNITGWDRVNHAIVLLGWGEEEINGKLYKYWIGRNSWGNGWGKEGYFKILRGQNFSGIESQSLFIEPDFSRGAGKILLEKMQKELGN
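Also: 30 min substrate incubation versus DMSO and 10 µM JCP410 controls.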

Compound | % Inhibition @ 10 uM
Cc1nnc(SCC(=O)NCCC(C)C)c2nn(-c3ccccc3)c(C)c12 | 0.535%
O=C1c2ccccc2C(NCc2cccnc2)N1Cc1cccnc1 (centres unmarked) | -10.8%
COc1ccc(C(=O)Nc2ccc(Cl)c(Cl)c2)cc1 | -6.86%
O=C(Nc1ccc(Oc2ccccc2)cc1)C1CC1 | -4.7%
N#CCNC(=O)[C@@H](Cc1ccccc1C#N)NC(=O)OCc1ccccc1 | -4.82%
COc1cc(C2CC(=O)Nc3cc4c(cc32)OCO4)cc(OC)c1OC (centres unmarked) | -1.52%
O=C(Nc1ccccc1)c1ccc(O)c([N+](=O)[O-])c1 | 6.15%
O=C(NCc1ccc(F)cc1)NCc1noc2ccccc12 | 2.75%
Nc1c(C(=O)Nc2ccc3c(c2)OCO3)sc2nc3c(cc12)CCCC3 | 4.42%
O=C(O)C(=O)c1cccnc1O | -1.85%
Cn1c(=O)c2c(nc(O)n2C)n(Cc2ccccc2)c1=O | -1.04%
CCc1ccc2oc(C(=O)Nc3cccnc3)cc(=O)c2c1 | 0.248%
CN1CCc2c(sc3c2C(=O)NC(c2ccccn2)N3)C1 (centres unmarked) | 4.54%
CC(C)(C)C1CCC(N2CCCC(O)C2)CC1 (centres unmarked) | 3.48%
CCOc1ccc(Cc2nc3ccccc3[nH]2)cc1 | 2.45%
Cc1ccc(/N=C2\CCCN2C(=O)c2ccc(F)cc2)cc1Cl | -2.45%
O=C(C1CCC(CNS(=O)(=O)c2cccc3nsnc23)CC1)N1CCn2c1nc1ccccc12 (centres unmarked) | -4.1%
N#CCCS(=O)(=O)c1ccc(Cc2ccc(S(=O)(=O)CCC#N)cc2)cc1 | -1.77%
O=C(NCC1COc2ccccc2O1)c1ccccc1 (centres unmarked) | -5.29%
COCCNC(=S)N1CCc2cc(OC)c(OC)cc2C1COc1cc(=O)oc2ccccc12 (centres unmarked) | 0.813%
COC(=O)c1ccc2oc(=O)c(-c3nc(-c4nonc4N)no3)cc2c1 | 2.96%
CCc1nc2nc(C)cc(NCCc3ccccc3)n2n1 | 3%

Compound | % Inhibition @ 10 uM
Cc1cccc(NC(=O)Nc2noc3c2COc2ccccc2-3)n1 | 0.589%
COc1ccc(CCNCc2ccc(C(=O)O)s2)c(OC)c1 | 1.03%
Cc1cc(O)nc(SC(C)C(=O)Nc2ccccc2C)n1 (centres unmarked) | -4.01%
CC(=O)c1ccc(-c2ccc(/C=c3\sc4nc(C5COc6ccccc6O5)nn4c3=O)o2)cc1 (centres unmarked) | 0.222%
CCOC(=O)c1c(C)oc2cc(Br)c(OC)c(Br)c12 | -2.63%
COc1ccccc1C1CC2=NC(C)=C(C(=O)OC3CCCC3)C(c3ccsc3)C2=C(O)C1 (centres unmarked) | 3.87%
CC(=O)C1=C(C)OC(N)=C(C#N)C1c1cc2c(cc1[N+](=O)[O-])OCO2 (centres unmarked) | -1.29%
C=CCN1C(=O)C(NC(=O)c2ccccc2)(C(F)(F)F)N=C1c1ccccc1 (centres unmarked) | -4.78%
CCOc1ccc(C2=CC(c3ccc(Cl)cc3)n3nnnc3N2)cc1 (centres unmarked) | 1.73%
COC(=O)CCP(C)(=O)OCC(C)C (centres unmarked) | -0.415%
Cc1cc(NCCCN2CCCC2=O)n2c(nc3ccccc32)c1C#N | -5.96%
CCOc1ccc(CNCCSc2nnnn2-c2ccccc2)cc1OC | 0.596%
C[C@@H](C[C@H](NC(=O)c1ccc(-c2ccccc2Cl)nc1)C(=O)NC1(C#N)CCS(=O)(=O)CC1)c1ccccc1 | -4.82%
O=C(NCc1ccc2c(c1)OCO2)c1c(F)cccc1F | 5.79%
O=c1oc(-c2ccccc2[N+](=O)[O-])nc2ccccc12 | -6.09%
CCO/C(O)=C1\SCC(C(=O)NCCCN2CC(C)CC(C)C2)N=C1C (centres unmarked) | 1.72%
CCOc1ccccc1C1C2=C(O)CCCC2=NC(C)=C1C(=O)OCCSCC (centres unmarked) | -5.28%
CCN1CCN(CC(O)COc2ccc(C(C)C)c(C)c2)CC1 (centres unmarked) | -3.98%
Cc1cc(OCC(CN(Cc2ccccc2)C(C)(C)C)OC(=O)c2ccco2)ccc1[N+](=O)[O-] (centres unmarked) | 1.7%
CCC(C(=O)Nc1cc(Cl)ccc1OC)c1ccccc1 (centres unmarked) | 4.03%
Cc1c(C(=O)NCCCN2CCOCC2)sc2ncnc(N3CCN(c4ccccn4)CC3)c12 | -3.21%
CCCNC(=O)c1cc(-c2ccco2)nc2ccccc12 | 6.1%

Compound | % Inhibition @ 10 uM
Cc1cccc(NC(=O)c2cc3ccccc3oc2=O)c1 | 3.34%
CCc1nnc(NC(=O)Cn2nc(Cc3ccncc3)c3ccccc3c2=O)s1 | -2.92%
CC(C(=O)NCCC1=CCCCC1)n1c2ccccc2c2cnn(C)c(=O)c21 (centres unmarked) | 5.88%
C=CCNC(=O)CCCc1nc(-c2ccc(C)cc2)no1 | -2.92%
NS(=O)(=O)c1ccc(CCNS(=O)(=O)c2ccc3ncc(C(=O)O)c(O)c3c2)cc1 | -1.28%
Cc1n[nH]c(SCC(=O)c2ccc(O)cc2O)n1 | 4.01%
COCCO/C(O)=C1/C(C)=NC2=C(C(=O)CCC2)C1c1ccc(Cl)cc1 (centres unmarked) | -1.03%
Oc1ncccn1 | -2.88%
CCCn1nc(NS(=O)(=O)c2ccc(C)cc2)c2cc3cc(C)ccc3nc21 | 4.18%
COc1ccccc1/C=C/c1nc(C#N)c(NCCc2ccc(OC)c(OC)c2)o1 | -10.3%
COc1ccc(C2SCC(=O)N2c2nc3ccccc3s2)cc1 (centres unmarked) | -3.64%
COc1cccc(C(=O)Nc2ccc3ccccc3c2)c1OC | 1.35%
COc1cccc(C(=O)Nc2cccc(C)c2C)c1 | 1.15%
CCCOc1ccc(N2C(=O)CC(SCC(=O)Nc3ccc(Cl)cc3)C2=O)cc1 (centres unmarked) | 1.78%
COC(=O)c1cc(S(=O)(=O)N2CCN(Cc3ccc4c(c3)OCO4)CC2)c[nH]1 | 3.45%
CN(CCc1ccccn1)Cc1ccc(F)c(F)c1 | -4.15%
Cc1ccc(C2=NS(=O)(=O)N(C)C(C(=O)Nc3sc4c(c3C(N)=O)CCCC4)=C2)cc1 | 9.86%
COC(=O)c1cc(S(=O)(=O)NCC2CCN(Cc3cc(C)ccc3C)CC2)cn1C | -3.39%
CCc1c(OC)ccc(/C=N/NC(=O)CSCc2ccc([N+](=O)[O-])cc2)c1OC | 1.83%
N#Cc1cc2c(N)c(C(=O)c3ccccc3)sc2nc1N | 14.6%
COc1ccccc1Sc1ccccc1CC(C)N (centres unmarked) | 1.19%
